Reference: article PMC4336329 (PLoS ONE, 2015)
Out of some 310,000 compounds screened, about 14,000 (4.5%) showed an effect of 50% or more. The effect is printed as a negative number. This is one part of the list.

molecular target: human ether-à-go-go-related gene (hERG) potassium channel (human, UniProt Q12809); assay: primary screen, population patch clamp on CHO cells stably expressing hERG
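Further: peak tail current of the secondary pulse compared with the same well before compound.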

Sequence of human ether-à-go-go-related gene (hERG) potassium channel (Q12809 whole entry, looked up): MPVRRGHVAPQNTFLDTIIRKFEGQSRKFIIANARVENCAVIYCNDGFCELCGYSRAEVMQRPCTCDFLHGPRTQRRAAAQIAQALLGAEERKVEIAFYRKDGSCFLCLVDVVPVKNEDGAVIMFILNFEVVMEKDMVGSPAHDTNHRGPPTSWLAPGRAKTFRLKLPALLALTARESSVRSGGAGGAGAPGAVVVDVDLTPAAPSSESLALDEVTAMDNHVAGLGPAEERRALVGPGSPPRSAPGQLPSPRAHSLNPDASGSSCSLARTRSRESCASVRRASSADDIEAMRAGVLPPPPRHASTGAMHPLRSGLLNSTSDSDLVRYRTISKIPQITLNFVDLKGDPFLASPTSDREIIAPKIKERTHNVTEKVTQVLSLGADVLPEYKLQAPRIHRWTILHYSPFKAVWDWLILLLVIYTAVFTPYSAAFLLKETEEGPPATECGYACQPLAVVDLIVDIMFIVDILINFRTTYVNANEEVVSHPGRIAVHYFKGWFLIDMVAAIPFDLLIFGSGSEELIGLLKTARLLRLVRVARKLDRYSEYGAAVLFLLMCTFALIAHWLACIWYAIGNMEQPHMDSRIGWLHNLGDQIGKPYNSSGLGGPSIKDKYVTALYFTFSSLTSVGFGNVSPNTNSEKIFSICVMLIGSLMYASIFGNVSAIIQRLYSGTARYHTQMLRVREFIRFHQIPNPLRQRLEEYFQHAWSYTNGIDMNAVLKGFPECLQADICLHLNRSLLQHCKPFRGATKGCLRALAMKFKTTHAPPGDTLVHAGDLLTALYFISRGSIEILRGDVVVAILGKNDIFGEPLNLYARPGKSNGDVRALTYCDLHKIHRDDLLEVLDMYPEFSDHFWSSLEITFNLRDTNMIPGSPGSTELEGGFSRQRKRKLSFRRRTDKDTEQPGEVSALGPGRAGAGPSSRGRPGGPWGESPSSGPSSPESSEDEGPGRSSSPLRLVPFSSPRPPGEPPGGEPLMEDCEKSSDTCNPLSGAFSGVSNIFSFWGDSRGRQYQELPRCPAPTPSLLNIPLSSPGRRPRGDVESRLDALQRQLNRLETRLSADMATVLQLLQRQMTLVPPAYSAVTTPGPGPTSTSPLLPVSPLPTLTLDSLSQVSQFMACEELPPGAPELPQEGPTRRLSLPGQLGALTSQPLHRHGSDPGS

SMILES | hERG current change (%, negative = inhibition) at 10uM [%]
O=C(Nc1ccccc1C(=O)NCCCN1CCOCC1)c1cccc([N+](=O)[O-])c1 | -52.7
CC1CCN(CC(=O)NNC(=O)c2cccc(Br)c2)CC1 | -14.9
COc1cc2oc3ccccc3c2cc1N(CC(=O)N(C)C)S(=O)(=O)c1ccccc1 | -19.4
O=S(=O)(c1ccc2ccccc2c1)N1CCN(S(=O)(=O)N2CCOCC2)CC1 | -0.31
Nc1ccc(O)c([N+](=O)[O-])c1 | 22.8
Cn1c(=O)c2c(ncn2CC(=O)N/N=C/C=C/c2ccco2)n(C)c1=O | 6.11
CCN(CC)S(=O)(=O)c1ccc(C(=O)Oc2ccc3c(c2)OCO3)cc1 | -2.51
Cn1c(SCC(N)=O)nnc1-c1cnccn1 | 24
CC(=O)c1c(C)[nH]c(C(=O)NCc2ccccc2Cl)c1C | 5.4
CC(NC(=O)c1ccc(Br)s1)c1ccncc1 (stereo not shown) | 7.8
COC(=O)CN1C(=O)N/C(=C/c2ccc(OC)c(C)c2OC)C1=O | 33.6
CN(c1cccc(NC(=O)Nc2ccc(Cl)cc2)c1)S(C)(=O)=O | -23.9
Cc1ccccc1NC(=O)CSc1nnc(Cc2cccn2C)n1-c1ccc(F)cc1 | -0.084
COc1cccc(N(CC(=O)NC(C)c2ccccc2)S(C)(=O)=O)c1 (stereo not shown) | 22.3
CCOc1ccc(/C=C/C(=O)Nc2ccc3[nH]c(=O)[nH]c3c2)cc1 | -6.93
Cn1c(CNC(=O)c2ccco2)nnc1SCC(=O)N1c2ccccc2Sc2ccccc21 | -5.23
O=C(Nc1ccnn1C1CCN(C(=O)c2ccc(Cl)c(F)c2)CC1)C1CCOC1 (stereo not shown) | 5.2
Cc1ccc(NC(=O)c2ccc3[nH]c(=O)c(=O)[nH]c3c2)nc1 | 6.38
O=C(c1ccco1)N1CCN(S(=O)(=O)c2ccc(Cl)cc2)CC1 | 2.47
COc1ccc(NC(=O)c2c(NC(=O)CNCC(C)C)sc3c2CCC3)c(OC)c1 | 22.9

SMILES | hERG current change (%, negative = inhibition) at 10uM [%]
Br.N=C(N)SCc1ccc(Cl)cc1Cl | -32.2
Cn1cnnc1SCC(=O)Nc1ccccc1F | 209
CC1=NN(c2cccc(C(=O)O)c2)C(=O)/C1=C\C=C\c1ccco1 | 8.53
COCCNC(=O)c1ccc(S(=O)(=O)N2CCCc3ccccc32)cc1 | 20.7
COC(=O)CNC(=O)CNC(=O)Nc1ccccc1Cl | 9.2
CC(C)(C)c1ccc(SCCc2cccnc2)cc1 | 8.44
Cc1ccc(NC(=S)NN2CCN(C)CC2)c(C)c1 | 12.6
O=C1N/C(=N/N=C/c2ccc(O)cc2)SC1Cc1ccccc1 (stereo not shown) | -0.793
OCc1c(Cl)nc2ccccn12 | -17.5
CCOC(=O)c1sc(=S)n(C)c1NC(=O)c1ccc(C(C)(C)C)cc1 | 11.8
COc1ccc([N+](=O)[O-])cc1/C=N/NC(=O)CNC(=O)c1cccc(F)c1 | -24.3
CCN1CCCc2cc(CN(CCN3CCOCC3)C(=S)Nc3ccc(C)cc3)ccc21 | -8.41
COCCN1CCN(C(=O)c2cc(COc3ccc(F)cc3Cl)on2)CC1 | -3.91
CCOC(=O)C(C)Sc1nc2c(cnn2-c2ccc(F)cc2)c(=O)[nH]1 (stereo not shown) | 2.97
CC(C)(C)c1cc(OC(=O)C2CCCC2)ccc1O | 16.7
O=C(CN1N=C(C(F)(F)F)CC1(O)c1ccc([N+](=O)[O-])cc1)c1ccccc1 (stereo not shown) | -8.56
CC(=O)c1ccc(-c2ccccc2)cc1 | 19.1
Cc1nnc(SCCC(=O)Nc2nc(-c3ccccc3)ns2)s1 | 0.127
Cc1ccc(-n2c(=O)c3sccc3n(Cc3cc(=O)n4cc(Cl)ccc4n3)c2=O)cc1F | -41.3
O=C(COc1ccc(-n2cnnn2)cc1)NC1CCCCC1 | -24.3

SMILES | hERG current change (%, negative = inhibition) at 10uM [%]
COc1ccc(CN(CC2CCC(C(=O)O)CC2)C(=S)Nc2ccccc2C)cc1 (stereo not shown) | 20.9
O=C(O)C(=O)O.O=[N+]([O-])c1ccc(S(=O)(=O)N2CCN(Cc3ccco3)CC2)cc1 | 15.3
C=CCn1c(SCn2nnc3ccccc3c2=O)nnc1C1CCCCC1 | -14.1
Cc1ccc(NC(=O)C(=O)NN)cc1 | 17.3
CCCc1cc(=O)[nH]c(SCc2ccc(C#N)cc2)n1 | -18.5
COc1ccc(-n2c(NN)nc3sc4c(c3c2=O)CCCC4)cc1 | -47.4
CCOC(=O)N1CCN(S(=O)(=O)c2ccc(C(=O)Nc3nc4ccc(F)cc4s3)cc2)CC1 | -25.3
COC(=O)N/N=C\c1cc(Br)ccc1OCc1ccccc1 | -6.55
O=c1[nH]c(S)c(/C=C2\C=Nc3ccccc32)s1 | 20.1
Cn1c(=O)c2[nH]c(N/N=C(/C#N)C(N)=O)nc2n(C)c1=O | -1
Cc1cc(=O)n2[nH]c(C)cc2n1 | 16.3
CN1CCN(c2nc3c(c(=O)[nH]c(=O)n3C)n2CC(N)=O)CC1 | 13.5
Cc1ccc(-c2cc(C(=O)N3CCN(C(=O)c4ccco4)CC3)no2)cc1 | -34
COc1ccc(-c2ccc(NS(=O)(=O)c3cc([N+](=O)[O-])ccc3C)cc2)nn1 | -25.5
Clc1cccc(/C=N/Nc2nnc(Cl)c3ccccc23)c1 | 1.62
CCc1cccc(NS(=O)(=O)c2c(C)nc3sc(CC)nn3c2=O)c1 | -24.6
O=C(NCCNc1ccc([N+](=O)[O-])cc1)c1ccc(Cl)cc1 | -52.8
C=CCNC(=O)c1onc(CSc2cc(C)ccc2C)c1C(=O)O | 3.65
